# Laboratory results published in the supplement of paper PMC11417369.
# ± gives the standard deviation of the averaged measurements. This is one part of the list.
# System: PfAP2-I AP2 domain 3 (GST-tagged)
# Assay: gcPBM binding intensity (ln(normalized median fluorescence intensity)); higher = stronger DNA binding
# In short: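 Binding intensity is defined as the maximum Masliner-normalised natural-log median intensity across replicate spots for either probe orientation. It was measured on an Agilent 4 × 180k array of primer-extended double-stranded 36-bp intergenic genomic probes and negative controls, to which GST-tagged P. falciparum DNA-binding domains made in E. coli were applied for 1 h in 1× PBS with 1% milk, 0.2 mg/ml BSA, 0.5% salmon testes DNA and 0.03% Triton X-100. Detection was by Alexa488 anti-GST antibody and scanning at 488 nm.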
row,Sequence,gcPBM binding intensity (ln)
1,ATAAAATATATATATATAAAAATAAATACATAAATA [GTGCAC_negctrl_site157],7.51 ± 0.26
2,CAAACAAACAGACACACACACACACCCAAAAATGAT [CACACA_site2430],7.99 ± 0.39
3,TCAATATTAAATTATTGTACATGTATGTATATATAT [XGTACX_site3861],8.44 ± 0.47
4,TTTTTTTTTTTTTTTTTACACACTTTATTCAAACAA [CACACA_site9360],8.21 ± 0.73
5,TTTATATAAATTTTTTGTACACAAGTAAAAACGCGT [XGTACX_site2459],7.93 ± 0.52
6,ACACAAATAAATATAACATATATATTATATTATATT [CACACA_negctrl_site710],7.64 ± 0.2
7,TATTTAAAATAATGTGCAAAAGAATAAATAAATAAA [TGCATGCA_negctrl_site194],9.21 ± 0.3
8,TTGTAAGAAAGACACACACACACATATAAATATGTA [CACACA_site6516],7.61 ± 0.54
9,TTCATTTTCATATATTGTACAAAATTTTATAAGGTT [XGTACX_site4522],7.99 ± 0.45
10,TATATATATATATATACACACATACAGATATATATT [CACACA_site4629],9.38 ± 0.69
11,TATATAAGAACTTTTACACACATGAAAATGTAGATA [CACACA_site7711],7.52 ± 0.51
12,TTACTATTATTATTTTTTATTTTTATTTTATTTATT [TGCATGCA_negctrl_site269],7.71 ± 0.52
13,CACTAAAAGAAACACACACACACACCCATATATATA [CACACA_site4151],8.44 ± 0.75
14,ATATACACATATACATGTACAAATATATATACACAT [XGTACX_site2986],7.92 ± 0.5
15,TAAAATAAAAAAGTAGTACACACTTCACGATATTTT [CACACA_site3896],8.06 ± 0.11
16,TTAAAAGTAAGCAAAGTGCATATAACAAAAGTAAAG,10.01 ± 0.092
17,AATATAAAACTTTAGAGTACTTATCATTAAAATATA [XGTACX_site4509],7.66 ± 0.47
18,ATTAATAATGAAAAAAAACACACGGTACATTCAAAG [CACACA_site1302],7.99 ± 0.74
19,TATTAAACTTGACACACACACACACGCATATATAAA [CACACA_site6496],8.07 ± 0.47

row,Sequence,gcPBM binding intensity (ln)
1,TACGGGAAAGATAAGAAACACACGGAAAATTAGACG [CACACA_site1661],8.12 ± 0.61
2,TTTTTTAATACATATGCATGTTCAAGTACGAAAAAA [TGCATGCA_site641],7.83 ± 0.8
3,ATATATTTTATACATACACACATATAAATATTTTTT [CACACA_site7780],7.99 ± 0.54
4,GGAACAAATAATATCACACATATATATATATATATA [CACACA_site5670],9.31 ± 0.57
5,TACGCAACCAAAAGTTGTACTAATTTTTTTTTTTTG [XGTACX_site7432],7.49 ± 0.4
6,TAATAAATATATTGAAGTACTTATAAAAAGCAATAT [XGTACX_site6262],8.38 ± 0.52
7,TTCATGTCCTATTAATGTACTCTACACACATATAAG [XGTACX_site899],7.91 ± 0.4
8,AAAAAAAAAAAAAAAACACACACATATATATATATA [CACACA_site8571],9.4 ± 0.39
9,TGTATATAATCGAGTGCACACACAAAAAAAAAGTGA [CACACA_site8417],9.93 ± 0.27
10,TTTATTTATTTTTGTTGTACACTTGTATATATTATT [XGTACX_site6486],8.22 ± 0.58
11,ATTTTATATACACTTTGTACTTATTTTATTCTTCTT [XGTACX_site4200],8.06 ± 0.88
12,ATATATATATATAATACACACTAAAGTAACATAATA [CACACA_site5580],9.08 ± 0.014
13,TATATATATAAATACACACACACATATATATATATA [CACACA_site4585],9.35 ± 0.48
14,GTATATAATTTATATTGTACGCATATTATTATCATT [XGTACX_site7277],7.88 ± 0.2
15,TCATTTTACAGATGTGCATGTGAATCAATCTATTTA [TGCATGCA_site787],7.78 ± 0.54
16,AATATACAAATTACAAGTACAAATCAATATTATATG [XGTACX_site7521],7.59 ± 0.53
17,AAAAAAAAAAAAAAAACACACAAACAAATGAATAAA [CACACA_site5769],8.76 ± 0.66
18,TGTAGTTTTTATTTATGTACGCATAACATAATTTAA [XGTACX_site104],8.01 ± 0.071
19,AGAATTTAGAAACAATGTTGTATATGTAATACCTTT [XGTACX_negctrl_site149],7.46 ± 0.61

row,Sequence,gcPBM binding intensity (ln)
1,TATATATATAAAAAAAGTACGTATTTAATAAAAATA [XGTACX_site4992],8.34 ± 0.39
2,GATATTATGTGTTTGGTATTTCGATCTTGTCAGGAC [CACACA_negctrl_site426],7.69 ± 0.65
3,ATTTCTATATATTGTGCATGCCATTACACCAAATAT [TGCATGCA_site813],8.45 ± 0.79
4,AGAAAGGATATTATATGTACATATCTTTGTATTTTT [XGTACX_site5040],7.54 ± 0.58
5,CATACCCATAAACACACACACATATATACCTATATA [CACACA_site4745],7.87 ± 0.44
6,TTTTTAATTCAAAAAACTGTATGTTATATGTCAAAT [CACACA_negctrl_site72],7.66 ± 0.44
7,TTCATTTTATTTTAAGTGCATATTTTTATTTTTTTG,8.82 ± 0.099
8,TAGTATGATAACTTGGGTACATAAATATGGAGTATC [XGTACX_site1296],8.06 ± 0.51
9,TATATAAATAAAAAAAGTACATTACTTTTTAATTTA [XGTACX_site285],7.4 ± 0.4
10,ATCATACCTTTTAATGTACACACATTTCTTTTTTGT [CACACA_site8198],8.15 ± 0.58
11,ATGGAATAATCACGTACACACAAGAAAAAAAAAAAT [CACACA_site527],8.01 ± 0.5
12,GGATAATATATTAGAACACACATATATATGTAAAAA [CACACA_site185],7.9 ± 0.64
13,ATTACAAATACAAACACACAAATGTTTTTCATTCAA [CACACA_site7639],7.63 ± 0.39
14,TTTTATTTGACAAGCACACACTTAAATATATATATA [CACACA_site5792],9.1 ± 0.071
15,AAACAAAAAATAAAATGTACATTTATTACGATAAGT [XGTACX_site2392],8.14 ± 0.57
16,TAGTATAATATGAACACACACACACCGACAAAAAAA [CACACA_site5151],8.14 ± 0.55
17,ATATAATTTATATATTCACACAAGGAATACTTTTAT [CACACA_site5506],7.67 ± 0.44
18,AATTGAAAAAGAAATTGTACATTTTATTTTTATTAT [XGTACX_site1973],7.54 ± 0.46
19,ATACATATATATATATGTACATATGTATTTTTTATT [XGTACX_site105],7.84 ± 0.34
